To fix the notation:
B1: chr1:53088011:53088246:-|CDS|ENSG00000162383|control|control|control (ssRNA)
RNA: GGGAGUUCUACAGUCCGACGAUCCAAGCCAGUGAGCCUCCAGGAGAUCGUGGCAGCCCAGCAGAAUGGCUGUGUGAAGAGUGUAGCCGAGGCCUCCGAGCUCACCCUGGGCCCCACCUGCCCCCACCACGUCCCCGUUCAAGUCAACAGAGGAUUGAGCAUCA
B2: chr5:140245379:140245480:-|3pUTR|ENSG00000113068|msi1|FALSE|unique (ssRNA)
RNA: GGGAGUUCUACAGUCCGACGAUCUCUUCUCUUUUCCCUUCCUGUACCUUUGACUAACGCUCAGCUUCCGGGCCUGCAUGCAGUAGACAGAAGAGGAAGAAAGAACAGAUGUUCACAGCUGAAUCUCAGUGAACAGAAUAGCAGCAACAGAGGAUUGAGCAUCA
B3: chr11:61865769:61866452:+|3pUTR|ENSG00000134824|msi1|FALSE|unique (ssRNA)
RNA: GGGAGUUCUACAGUCCGACGAUCUGCAGCCUGGUCACUAGGCAUCACCCCCGCUUUGGUUCUUCAGAUGCUCUUGGGGUUCAUAGGGGCAGGUCCUAGUCGGGCAGGGCCCCUGACCCUCCCGGCCUGGCUUCACUCUCCCUGCAACAGAGGAUUGAGCAUCA
B4: chr3:15690066:15690176:-|CDS|ENSG00000206560|unk|total|mutant (ssRNA)
RNA: GGGAGUUCUACAGUCCGACGAUCAGUGUUGGUACAGUCUUUGUCCGAUCUUGAUGUCAGAAACCGCCGUGGAAGAACACCCCCCGAUCUUGCAGCUUUUAAGGGCCAUGUUGAAUGUGUGGAUGUACUCAUUAAUCAGGGAGCCAACAGAGGAUUGAGCAUCA
B5: chr1:56708525:56708626:+|3pUTR|ENSG00000162409|unk|total|mutant (ssRNA)
RNA: GGGAGUUCUACAGUCCGACGAUCACCUUUCUCAAAUUCUUUUUGCCUCUAUUUAUUUUUGCAUUUCACCAACAGUGAUAAAACCGUUAAAUGAAACAAAGCAAAGUAUCAACAGUCCCUUAAAUGAGAAUCCUUAUCUUUGAUCAACAGAGGAUUGAGCAUCA
B6: chr5:136977529:136977630:-|3pUTR|ENSG00000152377|msi1|total|mutant (ssRNA)
RNA: GGGAGUUCUACAGUCCGACGAUCACAAGCCAUCUCUUUCAUUUCUGCUUGAAGCCCCUUGGCUGCAGCAAUCCUGUCUGCCACCGGUUUCUUCCUUCCUUACCUACUCAAGGGCUUUUUCUAAGGCAUGCACACAUAUCUCCUCAACAGAGGAUUGAGCAUCA
B7: chr14:106421710:106422018:-|CDS|ENSG00000211959|control|control|control (ssRNA)
RNA: GGGAGUUCUACAGUCCGACGAUCCUAUUAUAGUGGGAGCACCUACUACAACCCGUCCCUCAAGAGUCGAGUCACCAUAUCCGUAGACACGUCCAAGAACCAGUUCUCCCUGAAGCUGAGCUCUGUGACCGCCGCAGACACGGCCAACAGAGGAUUGAGCAUCA
B8: chr10:84150713:84150851:+|CDS|ENSG00000165678|unk|FALSE|unique (ssRNA)
RNA: GGGAGUUCUACAGUCCGACGAUCUCUUCCACCUACCACCGUGGCUGGUGCCACUCUUUACUCAGUGGCAAUGUACGGUGGAUUAGUUCUUUUCAGCAUGUUCCUUCUGUAUGAUACCCAGAAAGUAAUCAAGCGUGCAGAAGUCAACAGAGGAUUGAGCAUCA
B9: chr15:30360565:30362292:-|three_prime_utr|ENSG00000166664|control|control|control (ssRNA)
RNA: GGGAGUUCUACAGUCCGACGAUCACAACUCCAGUGUUCCCUUCUGGCUGUCAGUCGUGUUGCUUACGGUUUCUUUGUUACUUUAGGUAGUAGAAUCUCAGCACUUUGUUUCAUAUUCUCAGAUGGGCUGAUAGAUAUCCUUGGCAACAGAGGAUUGAGCAUCA
B10: chr1:109310645:109310811:-|3pUTR|ENSG00000134243|msi1|total|mutant (ssRNA)
RNA: GGGAGUUCUACAGUCCGACGAUCAGGGUAACGGGGCUGGCCUGGCAUCCGUCAUUAUUCCGUUUCCAGGCCAACCAUCCAGACCGAGAUUCCCUCUUUCCUUUGAGCAGUGCUCUCAAGAGCUCCGUGCCUGUCCACAAUGACCAACAGAGGAUUGAGCAUCA
B11: chr22:42060953:42061055:-|CDS|ENSG00000198951|unk|total|mutant (ssRNA)
RNA: GGGAGUUCUACAGUCCGACGAUCCCAGGAAAAAUCUCUCAUCGAAGUGUACAUGCGGCCUCUGUCCAACAAGGCCCGCGCCUCCGUCUUCUUCAGCUGCAGGACCGAUAUGCCUUAUCGCUACCACUCCUCCCUUGGCCAGCUCAACAGAGGAUUGAGCAUCA
B12: chr19:51078814:51078951:-|CDS|ENSG00000129437|control|control|control (ssRNA)
RNA: GGGAGUUCUACAGUCCGACGAUCUCUCUGCAAUGCGUGAACAUCAACAUCUCCCCGGAUGAGGUGUGCCAGAAGGCCUAUCCUAGAACCAUCACGCCUGGCAUGGUCUGUGCAGGAGUUCCCCAGGGCGGGAAGGACUCUUGUCAACAGAGGAUUGAGCAUCA
B13: chr4:42087128:42087229:+|3pUTR|ENSG00000014824|msi1|FALSE|unique (ssRNA)
RNA: GGGAGUUCUACAGUCCGACGAUCAUUUUGUAUAAUAUAGUUCAUACUGUGUCUGUGAGUUUCUUCAGUUACAAAUGGGCAUUUAGUAUAGUUAUAUUGACUAUAACAUGUAAGUAAAUAGCUUUCUACUGACCCUAAGUUAUCCAACAGAGGAUUGAGCAUCA
B14: chr16:3436009:3436110:-|3pUTR|ENSG00000167981|unk|total|mutant (ssRNA)
RNA: GGGAGUUCUACAGUCCGACGAUCAUUAAAAUGAAGGCUCUUGCUAAAGUUAUUUUAAUUUUGUUUACGCCGUUUCUGACUUUCCGAAGGAGGAGAAUUUAUUUAUAUUUUGCCAGUUCUGCAGACAUAUCCCGGAAAGUAAAUCAACAGAGGAUUGAGCAUCA
B15: chr4:138171744:138171845:-|3pUTR|ENSG00000151012|msi1|total|mutant (ssRNA)
RNA: GGGAGUUCUACAGUCCGACGAUCAGGAGUCAGUUAUUUUUAUUCAUAUAUUUCCGCAUAUUCGAACUAAUUUCUAAGAAAUUCCGUUAUAACUCUAUGCCGUUACCGAAAGUGAAUAUGCAGUUAUUCUAUGAGUCGCACAAUCAACAGAGGAUUGAGCAUCA
B16: ENSG00000106683:stop:overlap|stop_codon|ENSG00000106683|stop_codon|NA|stop_codon (ssRNA)
RNA: GGGAGUUCUACAGUCCGACGAUCGCUCUGCCCGGCAGAAACCUGUCUUCGCAAGGACCUGGGUCGCUCUGAGUCCCUCCGCGUAGUCUGCCGGCCACACCGCAUCUUCCGGCCGUCGGACCUCAUCCACGGGGAGGUGCUGGGCAACAGAGGAUUGAGCAUCA
B17: ENSG00000096717:stop:overlap|stop_codon|ENSG00000096717|stop_codon|NA|stop_codon (ssRNA)
RNA: GGGAGUUCUACAGUCCGACGAUCAUGAAGCUAUAUCUGUGAAACAGGAAGUAACAGACAUGAACUAUCCAUCAAACAAAUCAUAGUGUAAUAAUUGUGCAGGUACAGGAAUUGUUCCACCAGCAUUAGGAACUUUAGCAUGUCCAACAGAGGAUUGAGCAUCA
B18: chr8:12150890:12151093:-|CDS|ENSG00000254866|control|control|control (ssRNA)
RNA: GGGAGUUCUACAGUCCGACGAUCGAUGUCUGCAAAGUAGUAGAAGAUCAAAUUGGUGCCUGCCGAAGAAGGAUGAAGUGUUGUAGAGCAUGGUGGAUUUUAAUGCCAAUUCCAACACCACUUAUCAUGUCAGAUUAUCAAGAACAACAGAGGAUUGAGCAUCA
B19: chr1:213005240:213005351:-|CDS|ENSG00000174606|unk|FALSE|unique (ssRNA)
RNA: GGGAGUUCUACAGUCCGACGAUCGAACCCAGUGGAAUUCUUCCGCCCUGAUAUUUCUCUGUUGGACAGAGACAAUGUUGGAUUAGUUUUACUCUUACAGCCCAAAAUUCCAUAUGCUGCCUGCCCUGCAAUCUGCGUAGCAAACAACAGAGGAUUGAGCAUCA
B20: ENSG00000124766:be:win_1101|CDS|ENSG00000124766|bound_else_gene|NA|bound_elsewhere_windowed (ssRNA)
RNA: GGGAGUUCUACAGUCCGACGAUCCUCGCCCGCCCCGUCCAGCGCGCCCUCGCACGCGUCCUCCUCGGCCUCGUCCCACUCCUCCUCUUCCUCCUCCUCGGGCUCCUCGUCCUCCGACGACGAGUUCGAAGACGACCUGCUCGACAACAGAGGAUUGAGCAUCA
B21: ENSG00000148396:stop:overlap|stop_codon|ENSG00000148396|stop_codon|NA|stop_codon (ssRNA)
RNA: GGGAGUUCUACAGUCCGACGAUCCCACCUCCGGGAGCUCAAGGCUAGGGAGGAUUGGCCAGAGGAAGCACCUGGUGCUGAACUAGGCUUGCCCUGCUGUGAACUUGCACUUGGAGCCCUGACGCUGCUGUUCUCCCCGAAGAACAACAGAGGAUUGAGCAUCA
B22: ENSG00000198589:be:win_4101|CDS|ENSG00000198589|bound_else_gene|NA|bound_elsewhere_windowed (ssRNA)
RNA: GGGAGUUCUACAGUCCGACGAUCUAUGGUCAUGGCUUGUGGGGGUAUACUGCCAUUGCUUUCAGCUGCUACAUCGGCUACACAUGAACUGGAAAAUAUUGAACCUACUCAAGGCCUUUCAAUAGAAGCCUCUGUGACAUUUUUCAACAGAGGAUUGAGCAUCA

Some of the results follow.

This assay deals with T1, UNK ZnF1-6 (called full-length) (human, UniProt Q9C0B0 30-357).
T1 sequence: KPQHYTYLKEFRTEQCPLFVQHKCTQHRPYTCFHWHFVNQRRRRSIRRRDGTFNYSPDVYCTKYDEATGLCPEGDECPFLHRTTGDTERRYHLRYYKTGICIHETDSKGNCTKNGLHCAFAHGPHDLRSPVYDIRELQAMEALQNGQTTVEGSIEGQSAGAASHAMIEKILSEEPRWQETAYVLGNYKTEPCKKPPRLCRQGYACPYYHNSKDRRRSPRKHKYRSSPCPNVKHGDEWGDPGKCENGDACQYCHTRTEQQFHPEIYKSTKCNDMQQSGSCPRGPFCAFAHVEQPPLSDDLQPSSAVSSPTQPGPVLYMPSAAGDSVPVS
Put plainly: nsRBNS (natural sequence RNA bind-n-seq); RBNS binding buffer (assumed for nsRBNS): 25 mM Tris pH 7.5, 150 mM KCl, 3 mM MgCl2, 0.01% Triton X-100, 500 ug/ml BSA, 20 U/ml SUPERase-In, 4 C; UNK is unkempt and MSI1 is Musashi-1; names of the RNAs are library labels; protein concentration not given here; high values mean tight binding.
For the molecule B1, the binding signal is 1.11 enrichment R.

B2: the binding signal came to 0.49 enrichment R. Next, B3: 0.87 enrichment R; B4: 0.555 enrichment R; B5: 0.479 enrichment R. For B6, the binding signal came to 0.593 enrichment R. The molecule B7 returned a binding signal of 0.621 enrichment R.

The molecule B8 had a binding signal of 0.843 enrichment R. On to B9, for which the binding signal amounted to 0.472 enrichment R. For B10, the binding signal stood at 0.743 enrichment R.

In the case of B11, the binding signal is 0.824 enrichment R.

On to B12, for which the binding signal was determined as 0.785 enrichment R.

For the molecule B13, the binding signal worked out at 0.868 enrichment R.

B14 came in with a binding signal of 0.777 enrichment R. The value for B15 was 0.557 enrichment R; that for B16 was 0.972 enrichment R.

In the case of B17, the binding signal was found to be 0.722 enrichment R. The molecule B18 showed a binding signal of 0.546 enrichment R. On to B19, for which the binding signal was determined as 1.54 enrichment R. On to B20, for which the binding signal stood at 0.818 enrichment R. Consider B21, for which the binding signal worked out at 0.761 enrichment R.

For the molecule B22, the binding signal worked out at 0.489 enrichment R.

For the origin of these results see PMC12136788.
